According to PubChem BioAssay AID1671194 (National Center for Advancing Translational Sciences (NCATS), 2021):
Screen size: about 140,000 compounds; about 240 (0.17%) were called active. Inconclusive results, whose numbers are uncertain, are shown with a selection of clear calls. Calls come from the whole dose curve; as a rule, active = well fitted inhibition curve with a large enough effect; inconclusive = small, poorly fitted or top-dose-only effect; inactive = no such curve, though single readings can be large or run the other way. A potency beside an inconclusive call is a rough fit, not a confirmed value.

Assay: Primary qHTS assay for inhibitors of alpha-synuclein gene (SNCA) expression; note: nearly all actives have a fitted effect of over 45% in size
Conditions: HEK-293 SNCA-luciferase knock-in, luminescence, 24 h; series mostly up to 57.2 µM
Potency is the fitted concentration of half-maximal effect; tags give direction and shape of the fitted curve.

| SMILES | Potency |
| --- | --- |
| COC(=O)c1c(NC(=O)COc2c(C)ccc(C)c2C)sc2c1CCC(C)C2 (centres undefined) | inconclusive: 7.08 µM [inhibitor, single point] |
| CN(Cc1cccc(C(F)(F)F)c1)C(=O)c1cccc(Cl)c1 | inactive |
| O=C(Nc1ccc2c(c1)OCCO2)N1CCC(Cc2noc(C3CCOCC3)n2)C1 (centres undefined) | inconclusive: 39.8 µM [inhibitor, single point] |
| CCn1cc(S(=O)(=O)N2C[C@@H](Oc3ccccc3)C[C@H]2C(=O)N2CCCC2)cn1 | inconclusive: 14.1 µM [inhibitor, single point] |
| O=[S+]([O-])(c1ccccc1)N1CC2(CCCCN2Cc2cccnc2)Cc2ccccc21 (centres undefined) | inactive |
| O=C(c1c(O)cccc1O)N1CCOC(C(F)(F)F)C1 (centres undefined) | inconclusive: 14.1 µM [inhibitor, partial curve, poor fit] |
| COc1ccccc1CNC(=O)C(=O)NCC(c1cccnc1)N1CCN(c2ccc(F)cc2)CC1 (centres undefined) | inconclusive: 39.8 µM [inhibitor, single point] |
| COCCOc1cc(C)c2c(c1C)C[C@H](C(C)C(=O)NCc1cccs1)CC2 (some centres undefined) | inconclusive: 56.2 µM [inhibitor, single point] |
| O=C(CN(c1cccc(C(F)(F)F)c1)S(=O)(=O)c1ccccc1)Nc1cccc(Cl)c1 | inconclusive: 25.1 µM [inhibitor, single point] |
| O=C(NCC1CN(C(=O)Cc2ccc(OC(F)(F)F)cc2)CC12CN(c1ccccc1)C2)Nc1ccccc1 (centres undefined) | inconclusive: 39.8 µM [inhibitor, single point] |
| COc1ccc(C(=O)NC[C@@H]2C=C(C)[C@H](Cc3nnc(-c4cncn4C)o3)C[C@H]2C(C)C)cc1 | inconclusive: 39.8 µM [inhibitor, partial curve, poor fit] |
| COc1ccc(CN2C=C(C(=O)O)C(C)=NS2(=O)=O)cc1F | inconclusive: 3.55 µM [inhibitor, single point] |
| O=C(Nc1nccs1)[C@@H]1C[C@@H](c2ccc(F)cc2)N([S+](=O)([O-])c2ccccc2)C1 | inconclusive: 25.1 µM [inhibitor, single point] |
| O=C(NCc1ccco1)c1ccc(-c2ccc(N3CCCCCC3)nc2)cc1 | inactive |
| Cn1nccc1OCc1cn2c(=O)n(C)cc(-c3cccc(OCc4ccccc4)c3)c2n1 | inconclusive: 8.91 µM [inhibitor, full curve, poor fit] |
| Cc1ccc(S(=O)(=O)N[C@H]2CO[C@H]3[C@@H]2OC[C@@H]3Nc2nccc(C(C)(C)C)n2)cc1 | inconclusive: 31.6 µM [inhibitor, partial curve, poor fit] |
| O=C(NCc1ccccn1)c1nc2sccn2c1-c1ccc(C(F)(F)F)cc1 | inconclusive: 10 µM [inhibitor, partial curve, poor fit] |
| CC(=O)NC[C@@H]1C=C(C)[C@H](CC(=O)NCc2ccc(F)cc2)C[C@H]1C(C)C | inactive |
| O=C(NCCCc1ccccc1)c1n[nH]c2c1CN(C(=O)c1ccc(F)cc1F)CC2 | inconclusive: 17.8 µM [inhibitor, partial curve, poor fit] |
| COc1ccccc1C(=O)N1CCC(C(=O)N2CCC(N3CCOC3=O)CC2)CC1 | inactive |

| SMILES | Potency |
| --- | --- |
| COc1ccccc1-c1cc(-c2ccncc2)c2cncn2c1 | inconclusive: 10 µM [inhibitor, partial curve, poor fit] |
| CCOc1ccccc1C(=O)NC1CCN(c2cc(-c3ccc(OC)cc3)[nH]n2)CC1 | inactive |
| O=C(NC1CCCCCC1)C1CCN(c2ccnc3ccnn23)CC1 | inactive |
| O=C(c1cc(F)ccc1F)N1CCN(C(=O)c2nnn3c2COC(c2ccc(Cl)cc2)C3)CC1 (centres undefined) | inconclusive: 5.01 µM [inhibitor, full curve, poor fit] |
| Clc1ccc(CNC2(Cc3cc(COc4ccccc4)on3)COC2)cc1 | inactive |
| CN(C)C[C@@H]1CN(C2CCOCC2)C[C@H]1NC(=O)Cc1ccsc1 | inconclusive: 7.94 µM [inhibitor, single point] |
| CN(C)c1ccc(CNC(=O)CN2C(=O)CCn3nc(-c4cn(C)c5ccccc45)cc32)cc1 | inconclusive: 7.94 µM [inhibitor, single point] |
| O=C(CN1C(=O)C2(SCC(=O)N2c2ccccc2)c2ccccc21)NCCc1ccccc1 (centres undefined) | inconclusive: 3.55 µM [inhibitor, full curve, poor fit] |
| COc1ccc(CN2CCC3(CC2)COCCN3C(=O)OCc2ccccc2)cc1O | inactive |
| Cc1ccc(CSCCC(=O)N2CCN(c3cc(C)ccc3C)CC2)cc1 | inconclusive: 39.8 µM [inhibitor, single point] |
| COc1cccc(Cn2c(=O)c(C)nc3cnc(Oc4cccc(Cl)c4)nc32)c1 | inconclusive: 35.5 µM [inhibitor, single point] |
| Cc1ccccc1CNC(=O)c1cc2cccc3c2n1CC(C)S3 (centres undefined) | inactive |
| COc1ccc(NC(=O)N2CCc3c(C(=O)NCc4ccncc4)cccc32)cc1 | inconclusive: 39.8 µM [inhibitor, partial curve, poor fit] |
| Cc1ccc(S(=O)(=O)C(CNC(=O)COc2ccc(Cl)cc2)c2ccco2)cc1 (centres undefined) | inconclusive: 2.51 µM [inhibitor, single point] |
| Cc1ccccc1N(C)C1CN(Cc2cccc3ccccc23)C1 | inconclusive: 50.1 µM [inhibitor, single point] |
| C#CCN[C@H]1C[C@@H]2c3[nH]c4ccccc4c3C[C@@H](C(=O)OC)N2[C@H](c2ccc(F)cc2)C1 | inconclusive: 44.7 µM [inhibitor, partial curve, poor fit] |
| CCN1c2cc(C(=O)Nc3ccc(F)c(C)c3)ccc2C(=O)N2CCCCCC21 (centres undefined) | inconclusive: 39.8 µM [inhibitor, single point] |
| COC(=O)CNC(=O)CNC(=O)c1cccc(-c2ccsc2)c1 | inconclusive: 17.8 µM [inhibitor, partial curve] |
| Cc1cn2nc(C(=O)NCc3cccc(Cl)c3)cc2c(N2CCCC2)n1 | inconclusive: 2.24 µM [inhibitor, partial curve, poor fit] |
